From the supplement of paper PMC4604168 (melanoma cell lines)
This is one part of the list. Most values come without repeats; read them as rough.

Legend:
Experiment in all cases: cell count relative to DMSO control; melanoma cells; higher = more viable cells
Conditions in all cases: library dose: low library concentration; 72 h
MZ2-MEL = tested on: MZ2-MEL
MeWo = tested on: MeWo
RPMI7951 = tested on: RPMI7951
RVH-421 = tested on: RVH-421
SkMel28 = tested on: SkMel28
SkMel30 = tested on: SkMel30
SkMel5 = tested on: SkMel5
UACC257 = tested on: UACC257
UACC62 = tested on: UACC62
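Note: cell number obtained by counting DAPI-stained nuclei in high-throughput microscope images with image analysis software, screen run in 1,536-well plates.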

Compound | cell count (MZ2-MEL) [%] | cell count (MeWo) [%] | cell count (RPMI7951) [%] | cell count (RVH-421) [%] | cell count (SkMel28) [%] | cell count (SkMel30) [%] | cell count (SkMel5) [%] | cell count (UACC257) [%] | cell count (UACC62) [%]
Cn1c(Nc2ccc(C(F)(F)F)cc2)nc2cc(Oc3ccnc(-c4ncc(C(F)(F)F)[nH]4)c3)ccc21 + CCN(CC)CCCCNc1ncc2cc(-c3cc(OC)cc(OC)c3)c(NC(=O)NC(C)(C)C)nc2n1 [PD173074] (first compound 0.08 µM, partner dose 0.1 µM) | 78.3 | 66.2 | 69.3 | 71.9 | 52.6 | 60.2 | 64.3 | 50.8 | 50.5
Cn1c(Nc2ccc(C(F)(F)F)cc2)nc2cc(Oc3ccnc(-c4ncc(C(F)(F)F)[nH]4)c3)ccc21 + Oc1cc(-c2nc(-c3ccccc3)[nH]c2-c2ccncc2)ccc1Cl [L779450] (first compound 0.08 µM, partner dose 0.2 µM) | 72.7 | 74.2 | 58.6 | 61.6 | 45.9 | 56.5 | 71.2 | 37 | 45.7
COCC[n+]1c2c(n(Cc3cnccn3)c1C)C(=O)c1ccccc1C2=O + O=C1NC(=O)/C(=C/c2ccc(-c3ccc(F)cc3O)o2)S1 [AS252424] (first compound 0.0004 µM, partner dose 1 µM) | 77.1 | 96.9 | 98 | 116 | 93.6 | 81 | 79.8 | 88 | 104
C#Cc1cccc(Nc2ncnc3cc(OCCOC)c(OCCOC)cc23)c1 [erlotinib] + O=c1cc(-c2cccc3c2Sc2ccccc2S3)oc(N2CCOCC2)c1 [KU55933] (first compound 0.8 µM, partner dose 1 µM) | 82.1 | 91.2 | 92.5 | 120 | 80.1 | 109 | 107 | 72.5 | 95.7
Cn1c(Nc2ccc(C(F)(F)F)cc2)nc2cc(Oc3ccnc(-c4ncc(C(F)(F)F)[nH]4)c3)ccc21 + c1cc(-c2cnn3cc(-c4ccc(OCCN5CCCCC5)cc4)cnc23)ccn1 [Dorsomorphin] (first compound 0.08 µM, partner dose 0.4 µM) | 86.3 | 81.4 | 81.2 | 46.6 | 52.9 | 59.9 | 74.2 | 38.7 | 57
O=C(CCCCCCC(=O)Nc1ccccc1)NO [vorinostat] + COc1ccc(COc2ccc(Cc3cnc(N)nc3N)cc2OC)cc1 [GW2580] (first compound 0.08 µM, partner dose 1 µM) | 100 | 106 | 102 | 94.6 | 82.3 | 128 | 97 | 86.2 | 87
O=C(CCCCCCC(=O)Nc1ccccc1)NO [vorinostat] + O=c1cc(-c2cccc3c2Sc2ccccc2S3)oc(N2CCOCC2)c1 [KU55933] (first compound 0.08 µM, partner dose 1 µM) | 98.7 | 87.6 | 94.3 | 118 | 79.8 | 115 | 97.6 | 94.2 | 96.2
Cn1c(Nc2ccc(C(F)(F)F)cc2)nc2cc(Oc3ccnc(-c4ncc(C(F)(F)F)[nH]4)c3)ccc21 + O=C1NC(=O)/C(=C/c2ccc(-c3ccc(F)cc3O)o2)S1 [AS252424] (first compound 0.08 µM, partner dose 1 µM) | 83.7 | 55.8 | 57.8 | 59.8 | 52.8 | 57.5 | 67.2 | 33.9 | 47.5
Nc1cccc2c1CN(C1CCC(=O)NC1=O)C2=O (stereo unspecified) [lenalidomide] + Oc1nc(-c2ccc(C(F)(F)F)cc2)nc2c1CSCC2 [XAV939] (first compound 1 µM, partner dose 2 µM) | 103 | 104 | 105 | 87.4 | 97.5 | 112 | 87.2 | 69.8 | 104
COCC[n+]1c2c(n(Cc3cnccn3)c1C)C(=O)c1ccccc1C2=O + O=S(=O)(c1ccccc1)N(CC(F)(F)F)c1ccc(C(O)(C(F)(F)F)C(F)(F)F)cc1 [T0901317] (first compound 0.0004 µM, partner dose 1.4 µM) | 58.4 | 98.3 | 102 | 112 | 97.7 | 82.3 | 65.4 | 94.8 | 107
C#Cc1cccc(Nc2ncnc3cc(OCCOC)c(OCCOC)cc23)c1 [erlotinib] + c1cc(-c2cnn3cc(-c4ccc(OCCN5CCCCC5)cc4)cnc23)ccn1 [Dorsomorphin] (first compound 0.8 µM, partner dose 0.4 µM) | 98.7 | 94.4 | 97.9 | 96.3 | 87.3 | 90.6 | 88.2 | 88 | 81.5
O=C(CCCCCCC(=O)Nc1ccccc1)NO [vorinostat] + O=S(=O)(c1ccccc1)N(CC(F)(F)F)c1ccc(C(O)(C(F)(F)F)C(F)(F)F)cc1 [T0901317] (first compound 0.08 µM, partner dose 1.4 µM) | 98.7 | 85.2 | 111 | 94.5 | 80.6 | 100 | 72.7 | 94.7 | 92.7
C#Cc1cccc(Nc2ncnc3cc(OCCOC)c(OCCOC)cc23)c1 [erlotinib] + CCN(CC)CCCCNc1ncc2cc(-c3cc(OC)cc(OC)c3)c(NC(=O)NC(C)(C)C)nc2n1 [PD173074] (first compound 0.8 µM, partner dose 0.1 µM) | 93.5 | 94 | 99 | 110 | 97 | 82.8 | 100 | 85 | 102
Cn1c(Nc2ccc(C(F)(F)F)cc2)nc2cc(Oc3ccnc(-c4ncc(C(F)(F)F)[nH]4)c3)ccc21 + Oc1nc(-c2ccc(C(F)(F)F)cc2)nc2c1CSCC2 [XAV939] (first compound 0.08 µM, partner dose 2 µM) | 81.3 | 63.8 | 65.4 | 69.5 | 47.4 | 60.3 | 78.5 | 36.2 | 47.7
C#Cc1cccc(Nc2ncnc3cc(OCCOC)c(OCCOC)cc23)c1 [erlotinib] + O=C(Nc1ccccc1)c1cc([N+](=O)[O-])ccc1Cl [GW9662] (first compound 0.8 µM, partner dose 2 µM) | 91.8 | 84.7 | 106 | 89.3 | 83.8 | 89.9 | 83.3 | 93.9 | 88.3
COCC[n+]1c2c(n(Cc3cnccn3)c1C)C(=O)c1ccccc1C2=O + Cn1cc(/C=C2\C(=O)Nc3cccnc32)c2ccccc21 [GW441756] (first compound 0.0004 µM, partner dose 0.4 µM) | 51.7 | 97.3 | 74.8 | 94.3 | 87.7 | 90.1 | 82.2 | 88.6 | 105
C#Cc1cccc(Nc2ncnc3cc(OCCOC)c(OCCOC)cc23)c1 [erlotinib] + O=C1NC(=O)/C(=C/c2ccc(-c3ccc(F)cc3O)o2)S1 [AS252424] (first compound 0.8 µM, partner dose 1 µM) | 93.4 | 77.9 | 109 | 101 | 84.7 | 96.7 | 107 | 82.7 | 86.6
Cn1c(Nc2ccc(C(F)(F)F)cc2)nc2cc(Oc3ccnc(-c4ncc(C(F)(F)F)[nH]4)c3)ccc21 + COc1cc(N2CCC(N3CCN(C)CC3)CC2)ccc1Nc1ncc(Cl)c(Nc2ccccc2S(=O)(=O)C(C)C)n1 [NVP-TAE684] (first compound 0.08 µM, partner dose 0.08 µM) | 85 | 56.3 | 77.8 | 69.9 | 63.4 | 47.8 | 72.3 | 25.4 | 49.3
O=C(CCCCCCC(=O)Nc1ccccc1)NO [vorinostat] + c1cc(-c2cnn3cc(-c4ccc(OCCN5CCCCC5)cc4)cnc23)ccn1 [Dorsomorphin] (first compound 0.08 µM, partner dose 0.4 µM) | 95.5 | 91.3 | 88.2 | 88.9 | 91 | 110 | 81.3 | 89.6 | 90.1
Cn1c(Nc2ccc(C(F)(F)F)cc2)nc2cc(Oc3ccnc(-c4ncc(C(F)(F)F)[nH]4)c3)ccc21 + O=C(O)C(=O)Nc1sc2c(c1C(=O)O)CCNC2 [TCS401] (first compound 0.08 µM, partner dose 1.66667 µM) | 84.7 | 74 | 60.8 | 75.2 | 75.3 | 82.8 | 80 | 45.1 | 49.3
Cn1c(Nc2ccc(C(F)(F)F)cc2)nc2cc(Oc3ccnc(-c4ncc(C(F)(F)F)[nH]4)c3)ccc21 + CC(C)CCN1c2nc(Nc3cc(F)c(O)c(F)c3)ncc2N(C)C(=O)C1C [BID1870] (first compound 0.08 µM, partner dose 0.2 µM) | 79.3 | 67 | 58.2 | 61.2 | 43.4 | 55.5 | 70.4 | 51.8 | 42.3
Nc1cccc2c1CN(C1CCC(=O)NC1=O)C2=O (stereo unspecified) [lenalidomide] + O=c1cc(-c2cccc3c2Sc2ccccc2S3)oc(N2CCOCC2)c1 [KU55933] (first compound 1 µM, partner dose 1 µM) | 104 | 103 | 110 | 130 | 87.1 | 81.7 | 91.5 | 111 | 105
Nc1cccc2c1CN(C1CCC(=O)NC1=O)C2=O (stereo unspecified) [lenalidomide] + Cn1cc(/C=C2\C(=O)Nc3cccnc32)c2ccccc21 [GW441756] (first compound 1 µM, partner dose 0.4 µM) | 101 | 93.7 | 85 | 89.9 | 88.1 | 91.2 | 78.3 | 78.2 | 89.6
O=C(CCCCCCC(=O)Nc1ccccc1)NO [vorinostat] + O=C1NC(=O)/C(=C/c2ccc(-c3ccc(F)cc3O)o2)S1 [AS252424] (first compound 0.08 µM, partner dose 1 µM) | 94.7 | 96.9 | 91.8 | 105 | 81.8 | 104 | 78.3 | 88.4 | 82.9
